In the RNAGym collection of RNA variant scans (doi:10.7554/elife.90254) one finds self-cleavage data, which are given here for 167 variants.

The source gives no read counts; variants with many changes may rest on few reads.

B1: LINE1-mini (parent)
chain: GGCAGAGCUCAACACAGCGUGGCAAAGUGGCUGUGGCUAGACUGCC

This data set covers variants of B1. The experiment in a line: self-cleavage, relative activity (ratio to wild type); higher = more cleavage; in vitro, sequencing; the parent is a self-cleaving ribozyme.
For G1C A16U G21U A24C G30U A41U C46A, the self-cleavage is 0.02.
As to G1C A4G C10U A16U A25G C37U, the self-cleavage is 0.01.
On to G1C A6C C23U C37G, for which the self-cleavage turned out to be 0.01.
Regarding G1C C8A C10G G40A, the self-cleavage was 0.
Next, G1C A6G U20G G22A G29U: 0.02; G1C A4C U38A: 0.05; G1C A11G C15U C23U U28C A39U: 0.01.
With G1A U28C G29U the figure was 0.61; with G1C A39U C45A C46G, 0.03.
Next, G1C A14U G21U G36C C37U: 0.
With G1C A16C G33A, the self-cleavage was 0.
G1C A4U U9A U43C C46U: the self-cleavage was 0.03.
Next, G1A U9G G35A: 0.06; G1C A26C U28A U38A C42U: 0.02.
For the variant G1C A6C U28A, the self-cleavage came out at 0.02.
Consider G1C A24U G27U, for which the self-cleavage came to 0.13.
On to G1A G35U C37G C46U, for which the self-cleavage is 0.05.
With G1C A25U U38A G40C the figure was 0.03; with G1C A6G A11C C31U G36C, 0.01; with G1C A6U C18G, 0.06.
For the variant G1C A6U A16C, the self-cleavage is 0.03.
For G1C A6C G40U, the self-cleavage came out at 0.06.
For G1C C10A C23U, the self-cleavage was determined as 0.01.
For G1C C10A C23G, the self-cleavage came out at 0.
Next, G1C C3U A12G G29A U34G: 0.01; G1C C10A C15A: 0.01; G1C C8U C15U G17U: 0.02.
Turning to G1C A4U G21C A24C G35A, the self-cleavage was 0.04.
G1C C10A U32G G40C: the self-cleavage was found to be 0.02.
Take G1C C8A C18U: the self-cleavage is 0.
For the variant G1A G36C C37U A39G A41U, the self-cleavage came to 0.02.
With G1C A12G G30U A39C the figure was 0.01; with G1A G40A C46A, 0.17; with G1C A4G U20C U28A A41C C42U, 0.02.
Take G1C A14C A25G G33C: the self-cleavage stood at 0.03.
Take G1A U9G G17U G30A C46A: the self-cleavage amounted to 0.13.
Next, G1C A12C G27C G33U: 0.01; G1A U9A A39C: 0.04; G1A U9G A25C G33A G36A: 0.12.
For G1C C13A A24C, the self-cleavage is 0.02.
Next, G1C C8A A11G U20C G22A U38A: 0; G1C C8U A14G C15A C23U G29U: 0.03.
Take G1C A12C A25C U28C G44U: the self-cleavage is 0.01.
Next, G1A U9A C23A U28G: 0.35; G1C C13A G17U G33C U34C G40C: 0.02.
Consider G1A U43A C45U C46G, for which the self-cleavage stood at 0.06.
G1A G22C U28A: the self-cleavage was 0.61.
Next, G1C C8A C23A A39G: 0.02.
For G1C A6G A12C A24G C45U, the self-cleavage is 0.
Turning to G1C C3A G22A, the self-cleavage turned out to be 0.16.
G1C A11U C18U U20G G21U G33C G40C: the self-cleavage stood at 0.
Next, G1A U20G U32A G36C C42A: 0.04.
As to G1C C13U C18G G27C, the self-cleavage is 0.
With G1C A14G C31U, the self-cleavage turned out to be 0.01.
As to G1A G27C C31U U38A, the self-cleavage is 0.53.
Turning to G1A U28A G30C, the self-cleavage turned out to be 0.99.
G1C C3G G29U U43A: the self-cleavage came out at 0.09.
On to G1C C8G G40U, for which the self-cleavage worked out at 0.03.
Next, G1C C3G G7C C10A G27A G29C: 0.02; G1A G27C G29U: 0.61; G1C C8G C15G G33A: 0.01.
With G1C A14G G33C C37A the figure was 0.01; with G1C A6C G17U, 0.01; with G1A U20G C42G, 0.01.
With G1C C13A G22U the figure was 0.01; with G1C C3A G33C G44C, 0.01; with G1C A12G U32G G33U A41G, 0.02.
G1C A25C G30U C37A G40A: the self-cleavage stood at 0.01.
On to G1C C10G A11G G35U G36A, for which the self-cleavage is 0.
As for G1C A16U G21U, the self-cleavage came out at 0.
In the case of G1C C8G A24C, the self-cleavage came to 0.01.
In the case of G1C A6G C8G U34G U38G C45U, the self-cleavage came out at 0.
Turning to G1C A6C C10A A14C C18A G33C, the self-cleavage amounted to 0.02.
Next, G1C A4C G19U A26C U28C C31U: 0.01; G1C C8G A16U C31G U38C: 0; G1C C3U A6C C42G: 0.03.
Next, G1C A11C C15U C18A: 0; G1C A16U U20A U38A C45A: 0.04.
As for G1A G29C A41U, the self-cleavage turned out to be 0.33.
Take G1A G21U G22C A24U C37U: the self-cleavage came to 0.04.
With G1C A24U U28A the figure was 0.09; with G1A G35C U38C U43G, 0.19.
Next, G1C C3U C45A: 0.14.
Turning to G1C A16C G21U C45A, the self-cleavage came out at 0.02.
Next, G1C A4C C10U G35C: 0.02; G1C C3A C23G G27U: 0.19.
Take G1A U9A G19C: the self-cleavage came to 0.11.
With G1C C13U C37A the figure was 0.06.
For the variant G1A U9A C15G A24C U32A G35U U43G, the self-cleavage came to 0.09.
As for G1C A6C A16G U20A U32G C37A, the self-cleavage came out at 0.
With G1C C10U A11U G17U C31A the figure was 0.01; with G1A U34A A41G, 0.03; with G1C A14G A16C G17U C42A, 0.01.
With G1A G30U G40U, the self-cleavage came to 0.02.
Next, G1A G30U G40C: 0.02.
Take G1C A12G U28G U34A C45G: the self-cleavage is 0.
Next, G1C A11G A16C C23G: 0.
Next, G1C C8G C23G G40A U43A C45U: 0.01.
Next, G1C A16G G17U U20A A39U: 0.02; G1C A4G C18A: 0.01; G1C A25G U28C: 0.02.
As for G1A G33A A39G, the self-cleavage came out at 0.09.
Turning to G1C A14G U32A, the self-cleavage came to 0.
In the case of G1A U20C A25G U32C U38A C45U, the self-cleavage stood at 0.06.
For G1C A26U G35C, the self-cleavage was 0.01.
With G1A U9G G30U G35A U43A the figure was 0.
Next, G1A U20C U32G C45G: 0.
As to G1A U20G G36U, the self-cleavage amounted to 0.01.
In the case of G1C A11G A26G C37A, the self-cleavage worked out at 0.
With G1C C8G G27A the figure was 0.01; with G1C A6U G17A C18A A41U, 0.01; with G1C A6C G7U C8U A11U, 0.01.
With G1A U20G G33C the figure was 0.02; with G1C A16U U20A G27A G44A, 0.02.
With G1C A14U C37U A41C the figure was 0.01.
In the case of G1C A4C C13G A26G U32C, the self-cleavage turned out to be 0.01.
Next, G1C A4U A6G: 0.06; G1A G35C A41C: 0.08.
In the case of G1C A6G G7U A24C, the self-cleavage worked out at 0.01.
Consider G1C A11U C45G, for which the self-cleavage stood at 0.
Next, G1C A4G C18A G19A C23U U32C A39C: 0.01; G1C A6U A11U C31A G33C: 0.01.
Next, G1A U28A G35A C45A: 0.19; G1A G30U G44U: 0.21.
With G1C C3U G35U the figure was 0.63; with G1C C13G A25G A41C, 0.02.
Turning to G1A U9A C10A A12C, the self-cleavage is 0.03.
On to G1C A4G G17A, for which the self-cleavage was 0.08.
With G1C A4G A12C A16U G17C C42A G44U the figure was 0.
As for G1C C10A A14U A16G, the self-cleavage is 0.01.
Regarding G1C C8U G21C C23G G27C G36U C37U G44C, the self-cleavage was 0.01.
Next, G1C A12C C13G A16G G29A C37G: 0; G1C A6G C8G C13U: 0.04.
In the case of G1A U9A G17A G21C, the self-cleavage is 0.4.
Next, G1C C10U G40C: 0.03; G1C C10A G19C G27C C45A C46A: 0.
As to G1C A6G C37G, the self-cleavage is 0.01.
Next, G1C C10U A11C G19A C31U G35A C42A: 0; G1C C10U G17C C18U G22C G33A A39C: 0.
Next, G1C A26U G27U: 0.02.
Take G1C C8A G21C: the self-cleavage amounted to 0.04.
As for G1C C8G G19A G36U, the self-cleavage was found to be 0.
On to G1C A16U C18A, for which the self-cleavage was 0.05.
As for G1C C3G A4G G7U A16C C31U, the self-cleavage came out at 0.1.
In the case of G1C C13G G44U, the self-cleavage was found to be 0.06.
For the variant G1C A4G A11C U28G, the self-cleavage stood at 0.
G1A U9A A11U G17U A26U G40A: the self-cleavage turned out to be 0.01.
With G1A G40A C42A the figure was 0.23; with G1C C3U C13G G27A, 0.19; with G1A U9A C42G, 0.29.
As for G1C C8A C18U U20A, the self-cleavage was determined as 0.02.
With G1C C8U A14G U38G the figure was 0.01; with G1A G21U G22U C42U, 0.55.
Next, G1C A4C G19U U20G U43C: 0.03; G1C A25C G40A: 0.01.
Consider G1A U34A C37G, for which the self-cleavage was 0.01.
Consider G1C A14C G19U G21C, for which the self-cleavage is 0.01.
With G1C C8A G29C U34A A39U the figure was 0; with G1C A11C G17U U34C G35C G40A, 0; with G1C A6G C13A U32C, 0.
Next, G1A U9A C10U: 0.17.
Next, G1C C3G C45A C46A: 0.02; G1C C3U C8A C46G: 0.24.
Regarding G1C A4C G30U G33U, the self-cleavage was determined as 0.01.
Next, G1C A14U C46U: 0.06; G1C C3U G21A G29U C31U: 0; G1C C10U C15U A25U U28C G40C: 0.
